# Measurements: PubChem BioAssay AID434955 (Southern Research Specialized Biocontainment Screening …, 2010)
# This is one part of the list. Further columns of the screen follow, without active or inactive calls. The list favours compounds with an active or inconclusive main result.
# Assay: beta-lactam sensitization of Mtb H37Rv, H37Rv (AID 434955);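 also: growth measured after seven days incubation then overnight dye step; 0% = bacteria only wells and 100% = bacteria with antibiotic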
# Details: M. tuberculosis H37Rv growth with meropenem, percent inhibition; measured here: primary screen without meropenem; at 25 µM
row,Compound,inhibition [%]
1,CCOc1cc(/C=N/O)ccc1OCC(=O)Nc1cccc(C)c1,46.8
2,Cc1cccc(NC(=S)NC2CC3C=CC2C3)c1 (centres undefined),37.1
3,CCc1cc(C(=O)N2CCCC(Nc3ccc(F)c(F)c3)C2)n(C)n1 (centres undefined),-1.97
4,O=C1CNC(=S)N1CCCc1ccccc1,1.72
5,O=C(NC1CCCc2ccccc21)C1CCN(c2c3c(nc4ncnn24)CCC3)CC1 (centres undefined),5.62
6,O=C(Cn1nc(-c2cccc(Cl)c2)ccc1=O)Nc1cccnc1,6.63
7,CCN(c1ccc(OC)cc1)S(=O)(=O)c1ccc2c(c1)CCN2C(=O)CCC(=O)O,-2.77
8,COc1ccc(N2CCN(CC(=O)Nc3ccccc3C(=O)NCc3ccccc3)CC2)cc1,83.4
9,O=c1c2c3n(c(=S)nc2[nH]n1-c1ccccc1)CCCCC3,-1.07
10,COc1ccccc1CNC(=O)c1ccc(SC)cc1OC,25.9
11,COc1ccc(-c2nn3cnnc3s2)cc1OC,-7.05
12,Cc1c(C(=O)Nc2cnccn2)oc2ccccc12,-0.25
13,COc1ccc(/C=C/C(=O)N(C(C)C)C(C)C)cc1Br,56.8
14,CN(C)C(=O)N1CCN(C(=O)c2ccco2)CC1,-4.52
15,CCS(=O)(=O)N1Cc2ccccc2CC1C(=O)Nc1nc2ccc(F)cc2s1 (centres undefined),47
16,COc1ccc(Cl)cc1NC(=O)CCc1nnc2ccc(N3CCC4(CC3)OCCO4)nn12,-4.98
17,COc1ccc2c(c1OC)C(=O)OC2Nn1cncn1 (centres undefined),2.09
18,O=C(CC1CCCC1)N1CCCC(Nc2ccc(F)cc2)C1 (centres undefined),-3.65
19,S=C(NNc1ccc2ccccc2c1)NC1CCCCC1,46.2
20,CCOC(=O)C1(Cc2cccc(Cl)c2)CCCN(C(=O)CCN2CCCC2=O)C1 (centres undefined),0.27
21,CCc1cccc(NC(=O)CCC(=O)N2CCSc3ccccc32)c1,-10.4
22,COc1ccc(C(=O)Nc2cccc3c2CCCC3)c(OC)c1,35.8

row,Compound,inhibition [%]
1,CCOC(=O)/C(C#N)=C\c1ccc(N2CCN(C/C=C/c3ccccc3)CC2)cc1,84.7
2,CC(=O)N1c2c(cc(Br)cc2S(=O)(=O)N2CCN(c3ccccn3)CC2)CC1C (centres undefined),1.33
3,O=C(Nc1ncc([N+](=O)[O-])s1)c1ccco1,0.17
4,COc1ccc(C2N3CC4(C)CN2CC(C)(C3)C4=O)cc1OC (centres undefined),-10.5
5,Cc1ccc(C(=O)NCC(=O)OCc2nnc(-c3ccccc3)o2)cc1,5.62
6,CSc1ccccc1NC(=O)COc1ccc(Cl)cc1C,19.7
7,O=C(CN1C(=O)S/C(=C\c2cccc(Cl)c2)C1=O)NCCCn1ccnc1,5.7
8,CCc1nc(CNC(=O)C2CCC(=O)N(CCc3ccc(OC)cc3)C2)cs1 (centres undefined),5.87
9,CCOc1ccccc1/C=N/n1c(COc2ccccc2)n[nH]c1=S,5.3
10,O=C(N/N=C/c1cc([N+](=O)[O-])ccc1O)C1CC1,21.6
11,CCN(CC)c1nc(Nc2ccccc2)nc(Oc2ccc(=O)n(C)n2)n1,4.38
12,COc1ccc(C(=O)Nc2ccc(OCC(=O)N3CCOCC3)cc2)c(OC)c1OC,-7.55
13,O=C(CSc1ncnc2c1cnn2-c1ccccc1)Nc1ccc2c(c1)OCO2,10.8
14,CCC(C)(C(=O)NC1CCCC1)N(CC1CCCO1)C(=O)c1ccc2c(c1)OCO2 (centres undefined),-8.7
15,Cc1ccnc(NC(=O)Cn2c(=O)oc3ccccc32)c1,-8.09
16,Cc1c[nH]c2cccc(OCC(CNC(C)(C)C)OC(=O)c3ccccc3)c12 (centres undefined),1.94
17,O=C(NC(=O)c1csnn1)Nc1ccccc1Cl,-0.67
18,O=C(CSc1nnc(CNC(=O)c2c(F)cccc2F)o1)NCc1ccc(F)cc1,4.54
19,CC(C)CN(C(=O)CCc1ccccc1)c1c(N)n(CC(C)C)c(=O)[nH]c1=O,-7.64
20,O=C(Nc1nnc(SCCC2OCCO2)s1)C1CC(=O)N(c2ccc(F)cc2)C1 (centres undefined),5.97
21,CN(c1ccccc1)c1nc(N)c([N+](=O)[O-])c(Nc2ccc(F)cc2)n1,-0.48
22,O=C(COn1nnc2ccc(Cl)cc21)NC12CC3CC(CC(C3)C1)C2,40.6

row,Compound,inhibition [%]
1,CC(Sc1nncs1)C(=O)NC1CCCCC1C (centres undefined),5.31
2,COCCOc1ccc(C(F)(F)F)cc1NC(=O)COC(=O)c1c(C)noc1C,-18.7
3,Cc1ccsc1C1NC(=O)c2c(sc3c2CCCC3)N1 (centres undefined),-4.69
4,CN(C)c1nc(=S)nc(NCc2ccccc2)[nH]1,5.74
5,CC1CCN(S(=O)(=O)c2ccc3c(c2)N(C)C(=O)CC(=O)N3C)CC1,-12.8
6,O=[N+]([O-])c1ccccc1/C=N/Nc1nnc(-c2ccccc2)c(-c2ccccc2)n1,-13.8
7,CCCCc1nc(C(N)=O)c2[nH]c(=O)n(-c3ccc(OC)cc3OC)c2n1,-2.08
8,CC(C)N1CCc2c(sc(NC(=O)CCS(=O)(=O)c3ccccc3)c2C#N)C1,-1.34
9,C/C(CC(=O)Nc1ccccc1Br)=N\NC(=O)C(=O)N1CCCC1,-2.63
10,CC(C)(C)NC(=O)CSc1nnc(-c2ccccn2)n1-c1ccccc1,-0.8
11,CCN(C)c1ccc(/C=N\n2nnnc2N)cc1,-9.34
12,O=C(Nc1nccs1)c1cccc(S(=O)(=O)N2CCCCC2)c1,-0.37
13,CC1CCc2c(sc3ncnc(N4CCOCC4)c23)C1 (centres undefined),-11.4
14,CSc1ncnc2c1ccn2CC(=O)Nc1ccc(C)c(C)c1,41.4
15,C=CCNC1=C(Cl)C(=O)c2ccccc2C1=O,46.5
16,O=C(Nc1ccccc1C(=O)NCCN1CCOCC1)c1ccco1,3.36
17,CCCN(C(=O)c1ccc2c(SCC(=O)O)c3c(nc2c1)CCC3)c1cccc(C)c1,-2.19
18,Cc1cc(C)c(C)c(S(=O)(=O)NCc2ccc(C(=O)N3CCN(C)CC3)cc2)c1C,-5.78
19,CC1CCc2c(C(=O)Nc3cccc(-c4nn[nH]n4)c3)csc2C1 (centres undefined),0.37
20,O=C(N/N=C/c1cc(Cl)c(O)c(Cl)c1)c1cc2c(ccc3ccccc32)o1,0.54
21,CC1CCN(C(=O)CSc2nnc(Cn3c(=O)sc4ccccc43)n2C)CC1,-13.1
22,Cc1ccccc1OCCNC(=O)/C=C/c1ccc([N+](=O)[O-])cc1,-6.47

row,Compound,inhibition [%]
1,Brc1ccc(-c2nn3c(-c4ccccn4)nnc3s2)o1,-3.7
2,Cc1nc(N)c(C#N)c(-c2cccnc2)c1-c1ccccc1,-3.36
3,Cc1ccc(NC2=C(Cl)C(=O)OC2OC(=O)c2ccco2)c(C)c1 (centres undefined),-8.5
4,CN(C)S(=O)(=O)c1ccc(C(=O)/C=C/c2cccnc2)cc1,18.5
5,O=C(CSc1ccc2nnc(-c3ccccn3)n2n1)Nc1ccccc1C(F)(F)F,0.17
6,O=C(Nc1cccc(-c2ccc(N3CCCCC3)nn2)c1)C(F)(F)F,5.09
7,COc1cccc(C2CC(c3ccc(C)cc3)n3nc(N)nc3N2)c1 (centres undefined),-14.8
8,CC1(C)CC(CCNC(=O)CCl)(c2ccccc2)CCO1 (centres undefined),49.6
9,CCOc1cc(/C=N/Nc2nc(-c3cccs3)c(NC(C)=O)s2)ccc1O,37.3
10,O=C(Nc1ccccc1)N1CCC(C(=O)N2CCN(S(=O)(=O)c3cccc(F)c3)CC2)CC1,5.28
11,CCC(=O)N1CCc2cc(Br)cc(S(=O)(=O)NCC3CCCN3CC)c21 (centres undefined),10.7
12,COc1ccccc1N1CC(C(=O)Nc2nnc(SCC(=O)NCC3CCCO3)s2)CC1=O (centres undefined),-2.5
13,CCN(CC)C(=O)C1CCN(C(=O)c2oc3ccc(C)cc3c2C)CC1,1.17
14,Cc1[nH]c2ccccc2c1C(=O)COC(=O)C1CCC1,1.6
15,O=C(N/C(=C/c1ccco1)C(=O)N1CCOCC1)c1ccccc1Br,-0.22
16,Cc1ccc(NC(=O)COc2ccc(C(=O)NCCc3ccccc3)cc2)cc1,-0.96
17,CC(=O)c1cccc(NC(=O)CN2C(=O)c3cccnc3Oc3ccc(Cl)cc32)c1,3.46
18,CCN1CCN(C(=O)C(=O)c2cn(CC(=O)N3CCCC3)c3ccccc23)CC1,9.45
19,C=CCNc1nc2ccccc2nc1NS(=O)(=O)c1cccc(C)c1,-0.75
20,CCOC(=O)N1CCN(C(=O)c2cc(COc3ccc(F)cc3F)on2)CC1,-0.7
21,FC(F)(F)c1ccc(/C=N/n2c(C3CCCCC3)n[nH]c2=S)cc1,20
22,CC(=O)Nc1cn(C(C)=O)c(C)n1,-4.39

row,Compound,inhibition [%]
1,COc1ccccc1CN1CC(C(=O)NC2(c3ccccc3)CC2)CCC1=O (centres undefined),3.64
2,COc1ccc(C(=O)N=c2sc3c(C)ccc(OC)c3n2C)cc1OC,0.98
3,Cc1csc2c(=O)n3c(nc12)CCCCC3,3.52
4,Cc1ccc(S(=O)(=O)C2(C(=O)N3CCN(C4CCCCC4)CC3)CC2)cc1,-1.73
5,O=C(NCCc1ccccn1)C(F)(F)C(F)(F)C(F)(F)C(F)(F)C(F)(F)C(F)(F)C(F)(F)C(F)F,-0.42
6,CCOc1ccc2ccccc2c1C(=O)N1CCN(c2ccccc2)CC1,3.48
7,CSCC[C@H](NC(=O)c1cccs1)c1nnc2ccccn12,-2.17
8,O=C(c1ccc2c(c1)OCO2)N1CCC2(CC1)OCCO2,3.66
9,CCc1cc2c(-c3ccccc3)cc(=O)oc2cc1OC(C)C(C)=O (centres undefined),-0.99
10,COc1ccccc1CCC(=O)Nc1cccc(S(=O)(=O)N2CCOCC2)c1,-0.56
11,COc1ccc(S(=O)(=O)N2CCN(C(=O)c3cc(-c4ccc(C)cc4)n[nH]3)CC2)cc1,4.09
12,COc1ccc(NC(=O)c2cccc(N3C(=O)C4C5C=CC(C6CC56)C4C3=O)c2)cc1 (centres undefined),-0.64
13,COC(=O)[C@H](CCSC)NC(=O)NCCc1ccc(F)cc1,0.77
14,O=C(Cc1ccc(F)cc1)Nc1ccccc1Sc1ccccc1,-6.58
15,CCC(=O)NC(=S)Nc1ccc(-c2nc3ccccc3s2)cc1,20.4
16,CCOC(=O)c1c(C)n(C)c2ccc(OCC(O)Cn3c(C)nc4ccccc43)cc12 (centres undefined),81.1
17,COc1cc2c(cc1OC)-c1cc(NC3CCCC3)nc(=O)n1CC2,-6.97
18,COc1ccc(N(C(=O)c2cccnc2)S(=O)(=O)c2ccc(Cl)cc2)cc1,0.37
19,COc1ccc(CCN2CCCC(CN(C)C(=O)c3cc(C)oc3C)C2)cc1 (centres undefined),1.72
20,CCOC(CNC(=O)CN1C(=O)COc2ccc(S(=O)(=O)N3CC(C)CC(C)C3)cc21)OCC (centres undefined),2.48
21,O=C(NCCCn1ccnc1)/C(=C\c1cccnc1)NC(=O)c1cccc(Br)c1,-5.5
